# According to PubChem BioAssay AID1508623 (National Center for Advancing Translational Sciences (NCATS), 2021):
# Hit rate of the full screen: of about 48,000 compounds, about 450 (0.94%) were called active. Inconclusive results, whose numbers are uncertain, are shown with a selection of clear calls. Calls come from the whole dose curve; as a rule, active = well fitted inhibition curve with a large enough effect; inconclusive = small, poorly fitted or top-dose-only effect; inactive = no such curve, though single readings can be large or run the other way. A potency beside an inconclusive call is a rough fit, not a confirmed value.
# Assay: Primary qHTS for Identification of Small Molecule Inhibitors of Huntingtin Promoter Activity; note: nearly all actives have a fitted effect of over 50% in size
# Conditions: HEK293 HTT promoter firefly luciferase reporter (activity 0% = vehicle and -100% = no light), 24 h; series mostly up to 57.5 µM
# Summary of the method: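 Firefly luciferase readout (Dual-Glo, 10 min RT) after 24 h, 37 °C compound exposure (final up to 57.5 uM) of HEK293 reporter cells cultured 24 h beforehand; PTC124 at 50 uM final as control inhibitor; activity scaled vehicle 0%, zero RLU -100%.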
# Potency is the fitted concentration of half-maximal effect; tags give direction and shape of the fitted curve.
row,SMILES,Potency
1,O=C(Nc1nc2n(n1)C(c1ccc(F)cc1)C=C(c1ccc(Cl)cc1)N2)c1ccc([N+](=O)[O-])cc1 (stereo not given),"inconclusive: 20 µM [inhibitor, partial curve, poor fit]"
2,COc1ccccc1CC(=O)Nc1ccc2nc(Nc3cccc(C(F)(F)F)c3)cc(C)c2c1,"inconclusive: 28.2 µM [inhibitor, single point]"
3,CC(=O)c1cccc(NS(=O)(=O)c2ccc3[nH]c4c(c3c2)CCCCC4)c1,"inconclusive: 14.1 µM [inhibitor, partial curve, poor fit]"
4,Cc1cn2c(=O)c(S(=O)(=O)Nc3ccc(OC(F)(F)F)cc3)c(C)nc2s1,"inconclusive: 39.8 µM [inhibitor, single point]"
5,CCOc1ccc(C(=O)Nc2ccc3nc(Nc4cccc(C(F)(F)F)c4)cc(C)c3c2)cc1OCC,inactive
6,CCOc1ccc(NC(=O)N2CC3CCCN3c3ccccc32)cc1 (stereo not given),"inconclusive: 31.6 µM [inhibitor, single point]"
7,CC(=O)NNc1ncnc2c1cnn2-c1ccccc1,inactive
8,Cc1ccccc1NS(=O)(=O)c1ccc2[nH]cc(C(=O)NCCc3ccccc3)c(=O)c2c1,"inconclusive: 25.1 µM [inhibitor, single point]"
9,CCOC(=O)c1ccc(NC(=O)CS(=O)(=O)Cc2nc(-c3ccc(C)cc3)oc2C)cc1,"inconclusive: 28.2 µM [inhibitor, single point]"
10,COC(=O)c1c(-c2ccc(Cl)cc2)noc1N1CCN(c2ccc(C(C)=O)cc2)CC1,inactive
11,CCOc1ccc(NC(=O)C(CC)n2nc(C)c3c(C)n(-c4ccccc4)nc3c2=O)cc1 (stereo not given),"inconclusive: 11.2 µM [inhibitor, single point]"
12,CCCOc1ccc(Oc2nc(NC)nc(N3CCOCC3)n2)nn1,inactive
13,COc1ccc(CNS(=O)(=O)c2cc3c(cc2Cl)N(C(C)=O)CCO3)cc1,inactive
14,CCCOC(=O)c1cccc(NC(=O)c2c(-c3ccccc3Cl)noc2C)c1,"inconclusive: 39.8 µM [inhibitor, single point]"
15,CCCCC(=O)Nc1c(C(=O)N2CCN(c3ccccc3F)CC2)oc2ccccc12,"inconclusive: 15.8 µM [inhibitor, single point]"
16,Cc1nc2ccc(S(=O)(=O)N(C)CC(=O)Nc3ccc(C(C)C)cc3)cc2s1,"inconclusive: 39.8 µM [inhibitor, single point]"
17,Cc1ccc(-n2ncc(C(=O)NCCN3CCc4ccccc4C3)c2C2CCN(C(=O)OC(C)(C)C)CC2)cc1C,"inconclusive: 39.8 µM [inhibitor, single point]"
18,COc1ccc(NC(=O)CN2CCN(CC(=O)Nc3ccccc3F)CC2)c(OC)c1,"inconclusive: 39.8 µM [inhibitor, single point]"
19,COc1ccc(S(=O)(=O)c2c(Nc3cccc(C)c3C)sc(C(=O)c3ccccc3)c2N)cc1,"inconclusive: 10 µM [inhibitor, partial curve, poor fit]"
20,COc1ccc(-c2nc(SCC(=O)NC(C)CCc3ccccc3)n[nH]2)cc1 (stereo not given),"inconclusive: 25.1 µM [inhibitor, partial curve, poor fit]"

row,SMILES,Potency
1,Cc1cccc(C)c1NC(=O)CN1CCN(CCCC(c2ccc(F)cc2)c2ccc(F)cc2)CC1,"inconclusive: 31.6 µM [inhibitor, single point]"
2,O=C1CC(c2c(Cl)cccc2Cl)c2c(ccc3ccccc23)N1 (stereo not given),"inconclusive: 39.8 µM [inhibitor, partial curve, poor fit]"
3,CC1=C(C(=O)Nc2ccccc2Cl)C(c2cccc(O)c2)n2ncnc2N1 (stereo not given),inactive
4,O=C(Nc1ccccc1C(F)(F)F)c1ncoc1-c1ccco1,"inconclusive: 1.41 µM [inhibitor, full curve, poor fit]"
5,COc1ccc(-c2cc(C(F)(F)F)nc(SCCC(=O)Nc3ccc(NC(C)=O)cc3)n2)cc1,"inconclusive: 25.1 µM [inhibitor, partial curve, poor fit]"
6,Cc1oc2ncn(C)c(=O)c2c1C(=O)N1CCN(c2cccc(C(F)(F)F)c2)CC1,inactive
7,C[C@H]1C[C@H](O)c2ccsc2S1(=O)=O,inactive
8,COCCNc1nc2c(c(=O)n(C)c(=O)n2C)n1Cc1c(F)cccc1Cl,"inconclusive: 11.2 µM [inhibitor, partial curve, poor fit]"
9,COc1ccc(Cl)cc1NC(=O)CSc1cn(CC(=O)N2CCCCC2)c2ccccc12,"inconclusive: 39.8 µM [inhibitor, single point]"
10,COc1ccc(S(=O)(=O)c2c(Nc3ccccc3F)sc(C(=O)c3cccc(OC)c3)c2N)cc1,"inconclusive: 7.94 µM [inhibitor, full curve, poor fit]"
11,CCOCCOC(=O)/C=C/c1ccc(OC)cc1,inactive
12,COc1cccc(C2CC(=O)Nc3c2ccc(C)c3C)c1OC (stereo not given),"inconclusive: 20 µM [inhibitor, partial curve, poor fit]"
13,Cc1ccc(NC(=O)CSc2ncc(-c3ccccc3)[nH]2)cc1,inactive
14,CCC(=O)N1CCc2cc(CNC(=O)c3ccccc3C)ccc21,inactive
15,Cc1ccc(OCC(=O)Nc2ccccc2C(=O)OCc2cc(=O)n3ccsc3n2)cc1,inactive
16,Cc1ccc(Cl)cc1N1CCN(C(=O)c2cnn(C)c2C2CCN(C(=O)OC(C)(C)C)CC2)CC1,"inconclusive: 31.6 µM [inhibitor, single point]"
17,COc1cc(OC)c(NC(=O)N2CCc3c([nH]c4ccccc34)C2c2ccccc2F)cc1Cl (stereo not given),"inconclusive: 14.1 µM [inhibitor, single point]"
18,O=C(Nc1ccccc1F)c1ccc(Cn2nc(N3CCN(c4ccccc4)CC3)ccc2=O)o1,"inconclusive: 20 µM [inhibitor, single point]"
19,O=S(=O)(c1ccc(F)cc1)N(CC(O)Cn1c2ccccc2c2ccccc21)c1ccccc1 (stereo not given),"inconclusive: 39.8 µM [inhibitor, single point]"
20,Cc1ccc2c(=O)cc(C(=O)NCc3ccccc3)oc2c1,"inconclusive: 28.2 µM [inhibitor, partial curve, poor fit]"
